Test results taken from patent US20210002342A1 (ACCELERON PHARMA, published 2021).

Legend:
[1] = molecular target: T1, Activin B (human, UniProt P09529 293-407); assay: Biacore SPR, BMPRII-Fc captured by anti-Fc antibody, ligand injected
T1 sequence (looked up): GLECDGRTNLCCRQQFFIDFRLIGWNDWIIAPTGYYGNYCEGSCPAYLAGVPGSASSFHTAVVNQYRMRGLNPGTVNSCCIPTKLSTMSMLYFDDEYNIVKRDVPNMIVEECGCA
Protocol: (§1) A Biacore™-based binding assay was used to determine the ligand binding selectivity of the BMPRII-Fc protein complex described above. The BMPRII-Fc homodimer was captured onto the system using an anti-Fc antibody, and ligands were injected and allowed to flow over the captured receptor protein.

[2] = molecular target: T2, BMP15 (human, UniProt O95972 268-392); assay: as above
T2 sequence (looked up): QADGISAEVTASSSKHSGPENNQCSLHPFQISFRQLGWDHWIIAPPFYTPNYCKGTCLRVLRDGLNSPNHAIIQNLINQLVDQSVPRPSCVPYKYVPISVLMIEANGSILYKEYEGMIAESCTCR
Protocol: as §1

Kd [1]: 3.8 nM
koff [1]: 0.075 s⁻¹
kon [1]: 2e+07 M⁻¹ s⁻¹
Kd [2]: 0.29 nM
koff [2]: 0.0028 s⁻¹
kon [2]: 9.9e+06 M⁻¹ s⁻¹
B1: homodimeric BMPRII-Fc fusion protein (extracellular domain of human BMPRII fused to a human immunoglobulin G1 Fc domain) (Fc fusion)
chain: SQNQERLCAFKDPYQQDLGIGESRISHENGTILCSKGSTCYGLWEKSKGDINLVKQGCWSHIGDPQECHYEECVVTTTPPSIQNGTYRFCCCSTDLCNVNFTENFPPPDTTPLSPPHSFNRDETG[letters of human IgG1 Fc and a few adjoining residues not shown]
notes: Expressed in a CHO cell line and captured by an anti-Fc antibody in the Biacore assay; also called BMPRII-Fc homodimer; BMPRII-Fc protein complex
